Experimental data: PubChem BioAssay AID1645882 (National Center for Advancing Translational Sciences (NCATS), 2021)
In all, about 16,000 compounds went through this assay and about 120 (0.75%) were called active. Inconclusive results (about 4%) are left out. Calls come from the whole dose curve; as a rule, active = well fitted inhibition curve with a large enough effect; inconclusive = small, poorly fitted or top-dose-only effect; inactive = no such curve, though single readings can be large or run the other way. Some of the results follow.

What follows are molecules tested against Rap guanine nucleotide exchange factor 3 (Homo sapiens) (UniProt O95398) (assay: Validation qHTS for antagonist of cAMP-regulated guanine nucleotide exchange factor 3 (EPAC1)). Settings: EPAC1 Rap1B-BODIPY-GDP exchange, fluorescence; series mostly up to 150 µM; activity change, negative = inhibition: at the top concentration.
UniProt O95398, sequence (O95398 whole entry, looked up): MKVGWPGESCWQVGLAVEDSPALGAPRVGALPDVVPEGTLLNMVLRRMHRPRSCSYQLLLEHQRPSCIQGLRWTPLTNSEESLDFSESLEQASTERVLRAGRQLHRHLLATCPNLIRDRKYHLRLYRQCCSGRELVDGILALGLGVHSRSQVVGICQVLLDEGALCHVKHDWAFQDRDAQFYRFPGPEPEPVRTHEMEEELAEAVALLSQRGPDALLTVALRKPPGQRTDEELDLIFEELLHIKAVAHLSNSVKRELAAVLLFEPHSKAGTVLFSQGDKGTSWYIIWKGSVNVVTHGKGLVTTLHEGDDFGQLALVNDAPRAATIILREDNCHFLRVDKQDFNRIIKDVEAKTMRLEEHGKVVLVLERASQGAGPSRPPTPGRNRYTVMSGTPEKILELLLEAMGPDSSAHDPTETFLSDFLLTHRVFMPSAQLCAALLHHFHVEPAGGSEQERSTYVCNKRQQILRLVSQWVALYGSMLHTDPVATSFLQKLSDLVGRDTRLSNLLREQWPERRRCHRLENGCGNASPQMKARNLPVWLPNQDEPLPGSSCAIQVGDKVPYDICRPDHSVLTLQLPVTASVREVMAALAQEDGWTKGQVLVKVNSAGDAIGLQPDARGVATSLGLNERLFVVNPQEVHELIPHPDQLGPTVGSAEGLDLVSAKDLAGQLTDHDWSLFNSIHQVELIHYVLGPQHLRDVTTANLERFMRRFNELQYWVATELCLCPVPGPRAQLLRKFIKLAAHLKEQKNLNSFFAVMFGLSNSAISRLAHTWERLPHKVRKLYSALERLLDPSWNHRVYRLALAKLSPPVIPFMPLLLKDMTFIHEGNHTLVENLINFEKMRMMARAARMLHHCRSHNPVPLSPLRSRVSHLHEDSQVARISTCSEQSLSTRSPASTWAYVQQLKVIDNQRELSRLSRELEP
From the text: Assay Provider (PI): Xiaodong Cheng Ph.D.
The University of Texas Medical Branch, […], TX
In multi-cellular eukaryotic organisms, the effects of cAMP are transduced by two ubiquitously-expressed intracellular cAMP receptors, the classic protein kinase A/cAMP-dependent protein kinase (PKA/cAPK) and the more recently discovered exchange protein directly activated by cAMP/cAMP-regulated guanine nucleotide exchange factor (EPAC/cAMP-GEF). Both PKA and EPAC are ubiquitously expressed in all tissues, and an increase in intracellular cAMP levels will lead to the activation of both PKA and EPAC. Therefore, careful dissections of the individual role and relative contribution of EPAC and PKA within the overall cAMP signaling in various model systems are critical for further elucidating the mechanism of cAMP signaling. To date no EPAC-specific antagonists and agonist, as well as isoform-specific agonists have been reported, and developing EPAC-specific pharmacological probes to determine the physiological functions that EPAC play in the overall cAMP-mediated signaling remains a major challenge within the research field. Furthermore, identified regulators of EPAC may lead to new mechanism-based therapeutic strategies specifically targeting the EPAC / cAMP-signaling components as EPAC has been implicated to play important roles in major human pathological conditions such as diabetes, heart disease, and cancer.
This qHTS will be used to screen the Molecular Libraries Small Molecule Repository (MLSMR) as a concentration-titration series using the NCGC unique quantitative screening (qHTS) platform to find activators for EPAC1. In addition, this assay will also be used as a counterscreen for the EPAC2 qHTS. This fluorescent based assay is developed and validated for EPAC1 that measures exchange using EPAC effector Rap1 complex with BODIPY-GDP, a GDP analog with a tethered fluorophores. Activators are identified by monitoring the change in fluorescence signal as the exchanged free BODIPY-GDP has a reduced fluorescence compared to Rap1-bound BODIPY-GDP. Increase in signal (activation) is the desired outcome for the EPAC1 agonist while no activity in this assay is desired for the EPAC2 agonist counterscreen.
[1] de Rooij, J., Zwartkruis, F. J., Verheijen, M. H., Cool, R. H., Nijman, S. M., Wittinghofer, A., and Bos, J.L. (1998) Nature 396, 474-477.
Briefly, three uL of reagents (100 nM EPAC1, 250 nM RAP1B-BODIPY-GDP, 50 uM GDP) were dispensed into a 1536-well Greiner black solid-bottom medium binding assay plate. Controls and test compounds (23 nL) were transferred to the plate via a Kalypsys pin tool equipped with a 1536-pin array. The plates were centrifuged at 1,000 rpm for 15 seconds followed by 5 minute incubation at room temperature. The assay plates were read at 5 minute intervals for 30 minutes in the ViewLux plate reader using 480nm excitation and 540nm emission filters. The results were normalized to the […] positive control ATA and DMSO.
Note: nearly all actives have a fitted effect of over 75% in size.

Activity change, negative = inhibition, inactive:
Cc1c(C(=O)NCC2Cc3cccc(-c4cncnc4)c3O2)c(-c2ccccc2)nn1-c1ccccc1 (stereo unspecified) 9.21%
O=C([C@@H]1CC=C[C@@H]2CCN(C3CCCCC3)C(=O)[C@@H]21)N1CCN(c2ccccc2)CC1 -2.93%
CC(=O)NC(C(=O)O)C(C)(C)SN=O (stereo unspecified) 9.85%
Nc1ccc(S(=O)(=O)Nc2ccc(Cl)nn2)cc1
COc1ccc(Oc2ncc3nc(C)c(=O)n(C[C@H]4CCCO4)c3n2)cc1 14.9%
CCCN1CCC(=O)N(CCC#N)CC1 -0.262%
O=C1c2c(O)cc(O)cc2OC(c2ccc(O)c(O)c2)C1O (stereo unspecified)
CCc1ccc2c(c1)N(CC(C)CN(C)C)c1ccccc1S2 (stereo unspecified) 21%
CC1CN(CCC(=O)NCc2ccc3ncccc3c2)Cc2cc(Cl)ccc2O1 (stereo unspecified) 4.31%
CC(C)NC[C@@H](O)COc1cccc2[nH]ccc12 -0.282%
O=C(NC1CCCCC1)[C@@H]1CC=C[C@@H]2CCN(C3CCCCC3)C(=O)[C@@H]21 12.9%
O=C1CCN(Cc2ccc([N+](=O)[O-])cc2)CCN1CCO 8.33%
COc1ccc(CN2CCC(=O)N([C@H](CO)c3ccccc3)CC2)cc1OC -7.47%
CN(C)CCCOc1nn(Cc2ccccc2)c2ccccc12 12.6% [at 75.8 µM]
O=C1c2ccccc2C(=O)c2c(NCCc3ccc(O)cc3)ccc(NCCc3ccc(O)cc3)c21 -1.78% [at 75.8 µM]
COc1cc2c(cc1OC)C1C(=O)c3ccc4c(c3OC1CO2)C=CC(C)(C)O4 (stereo unspecified) -27.3%
CCCS(=O)(=O)NCc1c(C)ncc2c1CCN(C(=O)c1cccc(Cl)c1F)C2 2.42%
CN(C)C1CCC(CC2CCc3ccccc32)CC1 (stereo unspecified) 12.4%
N#Cc1ccc(CN2CC[C@@]3(CCCN(C(=O)c4cnccn4)C3)C2)cc1 18.2%
N#CCCn1c(=O)c(-c2cc(F)cc(F)c2)nc2cnc(N3CCOCC3)nc21 29%
C=CC(COCc1ccccc1)N([C@@H](Cc1ccccc1)C(=O)OC)S(=O)(=O)c1ccccc1Br (stereo partly specified) 12.5%
O=c1c(-c2ccc(F)cc2)nc2cnc(N3CCNCC3)nc2n1Cc1cccs1 -6.65%
COc1ccc(-c2nc3cnc(N(C)C)nc3n(C[C@H]3CCCO3)c2=O)cc1 20%
N#CCCn1c(=O)c(-c2cc(F)cc(F)c2)nc2cnc(OCc3ccccc3)nc21 1.01%
COc1cc(O)c(C(C)=O)c(OC)c1 13.1%
Nc1ccn(C[C@@H](CO)OCP(=O)(O)O)c(=O)n1 -27.9%
O=C(c1cnccn1)N1CCC2(CCCN(c3ccccc3)C2)CC1 10.3%
CC[C@@H]1CN2CCc3cc(OC)c(OC)cc3[C@@H]2C[C@@H]1C[C@H]1NCCc2cc(OC)c(OC)cc21 3.45%
Cc1ccccc1N=C1Nc2ccccc2N[C@]12C[C@H]1CCCC(=O)N3CC[C@@H](C2)[C@@H]13 4.45%
CN1CCCC(CN2c3ccccc3Sc3ccccc32)C1 (stereo unspecified) 5.2%
COc1ccccc1CN1Cc2cccc3c2[C@@H](CC1=O)[C@H](O)[C@H](O)C3 8.51%
CO[C@]12C[C@@H](COC(=O)c3cncc(Br)c3)CN(C)[C@@H]1Cc1cn(C)c3cccc2c13
Cc1oc(-c2cccc(NC(=O)c3ccccn3)c2)nc1CNC(=O)C#Cc1ccccc1 0.0681%
O=C(NCC1CCC2(CCN(Cc3cc4ccccc4o3)CC2)O1)c1ccccc1 (stereo unspecified) 12.5%
COc1cccc(Nc2ncc3nc(C)c(=O)n(C[C@H]4CCCO4)c3n2)c1 6.81%
COCC1CCCN(Cc2ccc3c(c2)CN(C(=O)c2ccc(-n4cccn4)cc2)CCO3)C1 (stereo unspecified) 31%
Cc1ncc(C[n+]2csc(CCOP(=O)(O)O)c2C)c(N)n1 1.84%
CNCC[C@H](Oc1ccc(C(F)(F)F)cc1)c1ccccc1
N#CCCn1c(=O)c(-c2cc(F)cc(F)c2)nc2cnc(Oc3cccc(Cl)c3)nc21 10.4%
COCCn1c(=O)c(CCc2ccccc2)nc2cnc(Oc3cccc(Cl)c3)nc21 -14.4%
COc1cc(C(=O)N2CCOCC2)cc(OC)c1OC 13.7%
C=C1C(=O)O[C@H]2[C@H]1CC/C(C)=C\CC[C@@]1(C)O[C@@H]21 13%
COc1ncc2nc(-c3ccc(F)cc3)c(=O)n(-c3ccccc3)c2n1 0.41%
CC(=O)OCC(=O)[C@@]1(O)CC[C@H]2[C@@H]3CCC4=CC(=O)CC[C@]4(C)[C@H]3C(=O)C[C@@]21C
Cc1cccc(CN2Cc3cccc4c3[C@H](C=CC4)CC2=O)c1 -5.04%
CC(C)(C)[C@H]1CCC(=O)N(CCSc2ccc(Br)cc2)CC1 -12.9%
CC(=O)OCC(=O)[C@@]1(O)CC[C@H]2[C@@H]3CCC4=CC(=O)C=C[C@]4(C)[C@@]3(F)[C@@H](O)C[C@@]21C 1.69% [at 75.8 µM]
CCCCCCCCCCCCCc1ccco1 18.9%
Cc1cnc(-n2ncc(C(=O)N[C@H]3CCCCNC3=O)c2C2CC2)nc1-c1cccs1 14.5%
Cn1cc(C(=O)OCC2CCN(CCNS(C)(=O)=O)CC2)c2ccccc21
COc1ccc(OC)c(CN2CCOc3ccc(CN4CCC(O)(c5cccnc5)CC4)cc3C2)c1 7.4%
